# Laboratory results as given in paper PMC12040169 (PLOS Biology, 2025).
# The other results are listed elsewhere or left out.
# Test system: T1, C. trachomatis L2/434/Bu expressing GFP (CTL2-GFP)
# T1 construct: L2/434/Bu GFP intracellular growth in HeLa cells
# Design: species or system HeLa; C. trachomatis total inclusion area by high-content imaging, normalised to DMSO
# Settings: total inclusion area; 28.5 h, 10 µM; inhibitor
# Outline: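 After bulk GFP and resorufin fluorescence reads, cells were fixed, stained with Hoechst and imaged by high-content microscopy. Inclusion area and number (GFP) stood in for chlamydial growth, nuclei count (Hoechst) for host cell viability. MICs were derived as for the bulk readout.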
row,Compound,% of control remaining
1,O=C(NCCN1CCN(Cc2ccccc2Cl)CC1)Nc1ccccc1 [CBK268039],87.9217
2,Cc1cc(NC(=O)c2ccccc2)n(-c2nc(C)c(C)c(=O)[nH]2)n1 [CBK287655],82.3077
3,COc1ccccc1N1CCN(C(=O)CCCC(=O)O)CC1 [CBK286904],72.5397
4,CC/C(=C/c1sc2ccc3ccccc3c2[n+]1CCCS(=O)(=O)[O-])SC [CBK260901],83.4718
5,O=C(NCc1ccccn1)C(=O)N/N=C/c1ccccc1O [CBK262157],106.529
6,O=C(NCC1CCCO1)C(=O)Nc1ccccc1F (stereo not drawn) [CBK263557],103.453
7,Cc1ccc(COc2cc(C(=O)NCc3ccccn3)c3ccccc3n2)cc1 [CBK294403],112.049
8,CCCCN(CC)S(=O)(=O)c1ccc(-n2ncc(Cl)c(Cl)c2=O)cc1 [CBK305036],0
9,CC(C)N(C(=O)Cn1cccc2cc(C(F)F)nc1-2)C(C)C [CBK285012],93.9549
10,COc1ccc(CN(Cc2ccccc2OC)[C@@H]2COC[C@H]2c2ccc(F)cc2)cc1 [CBK286484],92.5196
11,CN1CCN(CCC(=O)Nc2ccc3c(c2)CCC3)CC1 [CBK264197],95.9923
12,CCN(CC)c1ccc(C(=O)CN2CCC(Oc3nccnc3OCc3cccnc3)CC2)cc1 [CBK083167T],88.5578
13,Cc1cc(Cl)c(S(=O)(=O)Nc2ccc(I)cc2)cc1OCC(N)=O [CBK266418],125.343
14,Cc1nc(SCC(=O)O)nc(O)c1CCC(C)C [CBK269920],75.2595
15,CS(=O)(=O)Nc1ncc(Br)cc1C(=O)NCc1ccc(F)cc1 [CBK076538],96.0566
16,O=c1c2c(n3c(S)nnc3n1Cc1ccco1)-c1ccccc1CC21CCCCC1 [CBK265271],121.086
17,CCOc1ccc(S(=O)(=O)N(C)CC(=O)O)cc1 [CBK270032],83.526
18,Cc1ncc([N+](=O)[O-])n1Cc1nnc(S)n1C [CBK267873],81.6739
19,Cc1cccc(-c2ncc(NC(=O)COc3ccc4ccccc4c3)nc2-c2ccc(N(C)C)cc2)c1 [CBK037575],79.098
20,CCOC(=O)c1cc2c(CNc3ccc(OC)nc3)cccc2o1 [CBK006086],121.271
21,CN1CCCN(c2nc(-c3cccc(C(F)(F)F)c3)cn3ccnc23)CC1 [CBK066519],99.8995
22,CC(C)(C)OC(=O)NCCc1ccc(Nc2cc(-c3cc4ccccc4s3)ncn2)cc1 [CBK090959],96.8988
23,Nc1nc(COn2c(-c3ccccc3)nc3ccccc3c2=O)nc(-c2ccccc2O)n1 [CBK266689],120.802
24,C=C1C2(C(=O)N3CCC(Oc4cccnc4)CC3)CCC(C2)C1(C)C (stereo not drawn) [CBK282082],90.1592
25,O=C(Nc1nnc(Cc2cccs2)o1)c1ccccc1 [CBK287831],72.7749
26,COc1ccc(C(NC(=O)C2CCCN(C(=O)NC(=O)c3ccccc3)C2)c2ccccc2C)cn1 (stereo not drawn) [CBK075023],92.4107

row,Compound,% of control remaining
1,CCc1ccccc1NC(=O)Cc1ccc(OC)cc1 [CBK087898],88.9045
2,COc1ncccc1C(=O)N1CCN(CCc2ccccc2)CC1 [CBK200226],62.9879
3,CCC(CC)CNc1ncnc2ccc(S(C)(=O)=O)cc12 [CBK306495],38.4021
4,CN1CCN(C(=O)c2[nH]c3ccccc3c2NS(=O)(=O)c2cccc3cccnc23)CC1 [CBK050041],85.8034
5,Cc1ccccc1NC(=O)NCc1ccccc1F [CBK105832],50.7566
6,COc1cccc([C@H]2CN(C(=O)c3ccccc3)[C@@H]3CCN(Cc4cccc(F)c4)C[C@H]23)c1 [CBK285626],81.4838
7,O=C(CSc1ccc2nnc(-c3ccccc3)n2n1)Nc1ccccc1 [CBK287513],108.608
8,O=S(=O)(O)c1cccc2cccc(I)c12 [CBK301197N],75.3719
9,CC(/C=C/c1ccccc1)=N\NC(=O)C(C)Oc1ccc(Br)cc1 (stereo not drawn) [CBK261212],105.327
10,O=C(O)c1cccc(NS(=O)(=O)c2c(Cl)cc(C(F)(F)F)cc2Cl)c1 [CBK155721],91.9145
11,CCc1nc(CCn2ccc3nc(OC)c(C#N)cc3c2=O)no1 [CBK307668],66.7414
12,CCn1cncc1C(=O)N1CCCC1(C)C(=O)NC1CCCC1 (stereo not drawn) [CBK281376],104.063
13,CN(C)CCCN1C(=O)C(O)=C(C(=O)c2ccc(F)cc2)C1c1cccnc1 (stereo not drawn) [CBK264531],114.318
14,CCc1cccc(NC(=O)c2cnc(-c3ccc(Cl)cc3)c(-c3ccc(OC)nc3)c2)n1 [CBK036671],124.155
15,CCC1C(c2ccc(C)cc2)=CCC(C(=O)NCCCN(C)C)C1C (stereo not drawn) [CBK016514],4.201
16,Brc1ccc(OCc2ccccc2)c(CNCc2ccccn2)c1 [CBK268340C],81.0427
17,Cc1cc(C)nc(NC(=O)COc2ccc([N+](=O)[O-])cc2)n1 [CBK265004],98.5923
18,Cc1nccn1CCC1CCN(C(=O)c2cn3ccccc3n2)CC1 [CBK281868],99.3399
19,O=C(CSCc1ccc(Br)cc1)N1CCN(Cc2ccc3c(c2)OCO3)CC1 [CBK268059],98.9342
20,CC1CCc2c(sc3ncnc(OCC(=O)NC4CCCC4)c23)C1 (stereo not drawn) [CBK305893],38.135
21,O=C(O)COCC(=O)N1CCCC(c2nc(-c3ccccc3)c3ccccn23)C1 (stereo not drawn) [CBK046806],123.883
22,Cc1nn(C)cc1-c1cncn1CC(C)Oc1ccccc1Cl (stereo not drawn) [CBK281739],93.4126
23,O=[N+]([O-])c1ccccc1CN1CCN(C/C=C/c2ccccc2)CC1 [CBK261518],83.3734
24,Cc1cn(S(=O)(=O)c2ccc(Cl)cc2)cn1 [CBK026492],118.245
25,O=C(c1ccccc1)c1cc(Cl)ccc1-n1ccnc1 [CBK012383],97.3266
